Measurements as given in ChEMBL document CHEMBL4888484, “Replenishing the malaria drug discovery pipeline: Screening and hit evaluation of the MMV Hit Generation Library 1 (HGL1) against asexual blood stage Plasmodium falciparum ,using a nano luciferase reporter read-out” (2022).
Screen size: about 150,000 compounds; about 540 (0.36%) showed an effect of 50% or more. The list shows a part of the results.

These compounds were tested on Plasmodium falciparum (assay: Primary screen in NF54 nanoGlo assay, in single point, at 2uM, 72h; a lower Z score goes with more inhibition). Settings: timepoint 72 hour.
Type: functional, Erythrocyte

| Compound | % Inhibition | Z score |
| --- | --- | --- |
| CCOC(=O)N1CCN(C(=O)c2c(C)n[nH]c2C2CC2)CC1 | -13% | 2.3 |
| COc1ccc(S(=O)(=O)N2CCN([C@H]3CC(=O)N(Cc4ccc(Cl)cc4)C3=O)CC2)cc1 | -3% | 0.5 |
| Cn1cc(CN2CC[C@H](CNC(=O)NCc3ccccc3)C2)cn1 | -9% | 1.91 |
| Cc1c[nH]c(CN2CC(c3ccccc3)(c3ccccc3)CCC2=O)n1 | -11% | 1.67 |
| N#Cc1ccc(C(=O)N2CCC(COc3ccc(C(=O)NC4CC4)cc3)CC2)cc1 | -10% | 1.97 |
| Cc1cc(S(=O)(=O)Nc2noc(C)c2Cl)sc1C | 2% | -0.45 |
| CC(=O)Nc1ccc(-c2cc(-c3ccccc3)nc(-c3ccccc3)n2)cc1 | -14% | 2.76 |
| CNc1cc(C(=O)N2CCCC[C@@H]2CCc2cccs2)ccn1 | -10% | 1.28 |
| CC(=O)c1c(-c2ccc(C(=O)N3C[C@]4(C)C[C@H]3CC(C)(C)C4)cc2)cnn1C | -17% | 1.5 |
| O=C1CC[C@@H]2CN(C(=O)c3cnn4c3CCC4)c3cccc1c32 | -10% | 1.23 |
| CCOc1ccc(-c2cc(C(=O)NC[C@@H](c3ccccc3)N3CCCC3)no2)cc1 | 2% | -0.38 |
| Cc1nn(C)c(C)c1S(=O)(=O)N1CCC(c2cncn2C)CC1 | -9% | 1.7 |
| O=C(c1ccc(F)cc1)N1CCOc2ccc(N3CCOCC3)cc2C1 | -10% | 2 |
| c1ccc2oc(-c3ccc(Nc4nc(N5CCCC5)nc(N5CCOCC5)n4)cc3)nc2c1 | -2% | 0.22 |
| Cc1cc(C)n([C@@H](C)c2nc(-c3c(C)ncc4c3CCNC4)no2)n1 | -4% | 0.82 |
| O=C(Nc1ccc(F)cc1)[C@@H]1C[C@H](C(=O)N2CCCCC2)CN(Cc2c[nH]c3ccccc23)C1 | -20% | 2.29 |
| O=C(Nc1cc2ccccc2cc1NC(=O)c1ccco1)c1ccco1 | 4% | -0.57 |
| CC(C)[C@@]1(c2nc(-c3cccc(C(F)(F)F)n3)no2)CNC(=O)C1 | 9% | -1.31 |
| CN1CCN(C[C@@H]2OC[C@H](NC(=O)c3ccc(C(F)(F)F)cc3)[C@H]2O)CC1 | 3% | -0.46 |
| Cc1c(-c2nc(-c3ccccc3)c(-c3ccccc3)[nH]2)n(C)n(-c2ccccc2)c1=O | -5% | 0.86 |
| Cn1ncnc1CCNC(=O)CNc1ccccc1 | -6% | 0.57 |
| O=S(=O)(c1ccc2c(c1)CCC2)N1CCCO1 | -10% | 0.91 |

| Compound | % Inhibition | Z score |
| --- | --- | --- |
| COc1cc(NC(=O)c2ccc(C)nc2)ncn1 | -4% | 0.68 |
| Cc1ccc(NC(=O)C2CCN(S(=O)(=O)c3ccc4c(c3)CCCN4C(=O)C3CCC3)CC2)c(Cl)c1 | -9% | 1.7 |
| Cc1nn(-c2ccccc2Cl)c(O)c1C(c1ccsc1)c1c(C)nn(-c2ccccc2Cl)c1O | 6% | -0.74 |
| CCC(CO)(CO)NC(=O)c1cccn1C(C)C | -9% | 1.38 |
| CCN(CC(F)(F)F)C(=O)c1cc(S(=O)(=O)N(C)C)oc1C | -16% | 1.6 |
| COc1ccc(C2(C(=O)N3CC[C@H](C(=O)O)C3)CCCCC2)cc1OC | -1% | 0.14 |
| O=C1c2ccccc2C(=O)C1c1cc2ccccc2cn1 | -13% | 2.18 |
| O=C(c1ccc(F)cc1)c1ccc(OCc2nnc(-c3ccco3)o2)cc1 | -10% | 1.27 |
| Brc1cccc2c1CN(Cc1c[nH]cn1)CC2 | -10% | 1.61 |
| CCCCn1nc(CC2CCN(C)CC2)nc1CN1C[C@@H]2CC[C@H]1C2 | -13% | 1.18 |
| C[C@@H](Cn1cnc2ccccc2c1=O)NCc1cccc(CO)c1 | -13% | 1.93 |
| O=C(Nc1ccccc1F)N1CCCCC[C@@H]1CN1CCOCC1 | 1% | -0.15 |
| C[C@](O)(CNC(=O)Cc1ccc(F)cc1)C1CC1 | -10% | 1.71 |
| Cn1c(NC(=O)c2ccc(F)cc2)c(-c2ccccn2)c(=O)c2ccccc21 | -12% | 1.54 |
| CC(C)CN(C1CCOCC1)C1CN(C(=O)Nc2ccccc2)C1 | -1% | 0.17 |
| C[C@H]1C(=O)NCCCN1C(=O)c1scnc1C(F)(F)F | -8% | 0.93 |
| CC(C)C[C@H]1COCCN1CCn1nc2ccccn2c1=O | -11% | 1.68 |
| CC(C)c1noc([C@@H]2CCCN2S(=O)(=O)c2ccc3c(c2)OCCO3)n1 | 2% | -0.45 |
| CCC(=O)Nc1ccc(Cl)cc1Cl | -14% | 1.89 |
| COc1ccc(C2CC2)cc1CNC(=O)c1cc2n(n1)CCO2 | -5% | 0.8 |
| Cc1cc(NC(=O)[C@H]2CCCN(S(=O)(=O)c3cccs3)C2)on1 | 3% | -0.39 |
| CC(C)Cn1ccnc1CN1C(=O)NC2(CC2)C1=O | 1% | -0.18 |

| Compound | % Inhibition | Z score |
| --- | --- | --- |
| Cn1cccc(C(=O)NC2(Cc3ccc(Cl)cc3)CC2)c1=O | -5% | 0.96 |
| Cc1nsc(N2CCN(Cc3ccn(C)n3)CC2)c1C#N | -9% | 1.18 |
| O=C1NCCCCCCN(S(=O)(=O)c2cccc(F)c2)[C@H]2CCC[C@@H]12 | -6% | 0.74 |
| Cc1cc(NC(=O)Nc2cc(C3CC3C)n[nH]2)ccn1 (stereo not given) | -15% | 3.05 |
| CN(c1ncnc2cccc(F)c12)[C@H](c1ccc(F)cc1)C1CC1 | -16% | 2.96 |
| CCn1c(C)cc(C(=O)CS(=O)(=O)Cc2ccc(F)cc2Cl)c1C | -5% | 0.89 |
| Cc1ccnc(N(C(=O)c2sccc2C)C(=O)c2sccc2C)c1 | 6% | -1.03 |
| Cn1cc([C@H]2CCCN(C(=O)CC3CCN(C(=O)OC(C)(C)C)CC3)C2)cn1 | -10% | 1.99 |
| CCN1CCCN(Cc2cc3cccnc3o2)CC1=O | -5% | 0.46 |
| O=C1O[C@H]2CN(C3CCCC3)C[C@H]2N1CCc1cccc(Cl)c1 | -13% | 1.15 |
| CC(=O)N1CCC(CNC(=O)OC(C)(C)C)CC1 | -8% | 1.06 |
| COc1cc(Nc2nc(=O)[nH]nc2C)c(OC)cc1Cl | -8% | 1.14 |
| CN(C)c1cnn(CC(=O)NCc2ccc3c(c2)OCO3)c(=O)c1 | -10% | 1.76 |
| O=S(=O)(Nc1cccc2[nH]ncc12)N1CCCCC1 | -6% | 1.18 |
| CC(C)COCC(C)NC(=O)C1CCCCC1C(=O)N1CCCC1 (stereo not given) | -15% | 2.08 |
| O=C(CN1CCCc2c(Cl)cc(Cl)cc21)N1CCNC1=O | 5% | -1.03 |
| Cn1c(CN2CCCCCC2)nnc1C1CCN(c2ccncc2F)CC1 | -9% | 1.8 |
| Cc1ccc(NC(=O)NC2C3CCC(C3)C2CO)s1 (stereo not given) | -12% | 2.28 |
| CN(C[C@H]1CCCN1C)c1nc(-c2ccccc2)no1 | -16% | 2.98 |
| C[C@H](NCCN1CCc2ccccc2C1)c1cc(CO)on1 | -15% | 2.19 |
| CCCn1c(=O)c(N2CCN(C(=O)c3ccc(F)c(Cl)c3)CC2)nc2ccccc21 | -9% | 1.65 |
| O=S(=O)(NCC1(CO)CCOCC1)c1cccnc1 | -11% | 2.06 |

| Compound | % Inhibition | Z score |
| --- | --- | --- |
| CN1CCC(CCNS(=O)(=O)CC2CCCC2)CC1 | -27% | 2.73 |
| CCc1nnc(-c2ccc3ccn(CC(=O)N4CCN(c5ccc(F)cc5)CC4)c3c2)o1 | 4% | -0.45 |
| Cc1nccc(NC(=O)NCc2cccs2)c1Cl | -17% | 1.4 |
| Cc1cnc2c(c1)N(C(=O)c1ccc(C(F)(F)F)nc1)CCO2 | 4% | -0.51 |
| CCOC(=O)c1cc(F)cc(S(=O)(=O)Nc2ccnc3ncnn23)c1 | 35% | -5.1 |
| O=C1CC[C@@H](c2ccc(OCc3nnc4n3CCCCC4)cc2)N1 | -10% | 1.45 |
| O=C(Cn1cnc2ccccc21)Nc1ccc2c(c1)CCC2 | 2% | -0.33 |
| CC(C)(CC(=O)O)NCc1ccc(Cl)c(F)c1 | -9% | 1.11 |
| C[C@H](NCc1ncn(-c2ccccc2)n1)C1CCOCC1 | -2% | 0.34 |
| Cc1ccsc1CN1C[C@H](NC(=O)CCO)[C@@H](C2CC2)C1 | -16% | 1.44 |
| CC(=O)N1CCN(C(=O)CCc2cccc(F)c2)C[C@@H](O)C1 | 4% | -0.67 |
| NC(=O)c1cnn(CCc2ccc(F)c(F)c2)c1 | 0% | 0.03 |
| Cc1ccc(Cn2cc([C@H](CC(=O)NCc3ccncc3)c3cccc(OCc4ccccc4)c3)c3ccccc32)cc1 | 1% | -0.11 |
| Cn1c([C@@H]2CNC(=O)C2)nnc1N1CCN(c2ccccc2)CC1 | -1% | 0.11 |
| O=C1COC(=O)N1C1CCN(S(=O)(=O)c2ccc(Cl)s2)CC1 | 10% | -1.89 |
| CC(C)c1ccc(NC(=O)N2CCc3nc(N4CCCCC4)nc(Oc4ccc(F)cc4F)c3C2)cc1 | 9% | -1.3 |
| CN(C)c1nccnc1N1CCc2c(c(C(N)=O)nn2C)C1 | -4% | 0.74 |
| COCC1(CNC(=O)N2CC(n3nc(C)cc3C)C2)CC1 | -17% | 1.79 |
| O=C(COc1ccc(Cl)cc1)NC[C@H]1CN(C2CC2)CCO1 | -1% | 0.16 |
